Reference: the supplement of paper PMC10037445
Whole data set: some 2,900 compounds, median “IRF Lucia reporter activity, fold change vs agonist alone” near 0.9, cut for the highest 2% near 2.8. Some of the results follow.

What was measured:
RAW-Dual [1] = assay: IRF Lucia reporter activity, fold change vs agonist alone; cytotoxicity flag (confluency mask): not cytotoxic; higher = enhanced IRF activity
Method in brief: (§1)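 Cytotoxic wells were those whose IncuCyte confluency was below 70% of agonist controls in both mask sets. The cells were RAW-Dual macrophages at 50,000 cells/well in DMEM on 384-well plates, dosed with 50 nL of library stock by pin tool, stimulated with a PRR agonist 1 h later, and kept at 37 °C, 5% CO2 for 20 hours. IRF and NF-κB reporter activity, as fold change over agonist-alone wells, came from supernatant read by QuantiLuc luminescence and QuantiBlue absorbance, respectively.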

RAW-Dual [2] = assay: IRF Lucia reporter activity, fold change vs agonist alone; higher = enhanced IRF activity; conditions: library stock concentration (final ~1000-fold dilution): 10 mM, agonist: MPLA (TLR4) […]
Method in brief: as §1

RAW-Dual [3] = assay: IRF Lucia reporter activity, fold change vs agonist alone; cytotoxicity flag (confluency mask): cytotoxic (confluency <70% of control); higher = enhanced IRF activity
Method in brief: as §1

[4] = agonist: 3'3'-cGAMP (STING) 10 ug/mL
[5] = cytotoxicity flag (confluency mask): not cytotoxic
[6] = cytotoxicity flag (confluency mask): cytotoxic (confluency <70% of control)

CCC1/C=C(\C)CC(C)CC(OC)C2OC(O)(C(=O)C(=O)N3CCCCC3C(=O)OC(/C(C)=C/C3CCC(Cl)C(OC)C3)C(C)C(O)CC1=O)C(C)CC2OC (stereo unspecified) (library stock concentration (final ~1000-fold dilution): 10 mM)
IRF Lucia reporter activity (RAW-Dual [1]; [4]): 0.715
IRF Lucia reporter activity (RAW-Dual [1]; agonist: LPS (TLR4) 0.1 ug/mL): 1.66

CCC1/C=C(\C)CC(C)CC(OC)C2OC(O)(C(=O)C(=O)N3CCCCC3C(=O)OC(/C(C)=C/C3CCC(Cl)C(OC)C3)C(C)C(O)CC1=O)C(C)CC2OC (stereo unspecified)
IRF Lucia reporter activity (RAW-Dual [2]; [5]): 1.02

CC(C)Oc1ccc(-c2cnc3c(-c4ccnc5ccccc45)cnn3c2)cc1
IRF Lucia reporter activity (RAW-Dual [2]; [5]): 0.837

CC(C)Oc1ccc(-c2cnc3c(-c4ccnc5ccccc45)cnn3c2)cc1 (library stock concentration (final ~1000-fold dilution): 10 mM)
IRF Lucia reporter activity (RAW-Dual [1]; [4]): 0.915
IRF Lucia reporter activity (RAW-Dual [1]; agonist: LPS (TLR4) 0.1 ug/mL): 1.05

c1ccc2c(CCNc3ccc(Nc4ccncc4)cc3)c[nH]c2c1 (library stock concentration (final ~1000-fold dilution): 10 mM)
IRF Lucia reporter activity (RAW-Dual [1]; [4]): 0.706
IRF Lucia reporter activity (RAW-Dual [1]; agonist: LPS (TLR4) 0.1 ug/mL): 0.612

c1ccc2c(CCNc3ccc(Nc4ccncc4)cc3)c[nH]c2c1
IRF Lucia reporter activity (RAW-Dual [2]; [5]): 2.97

Cc1cc(C(C)Nc2ccccc2C(=O)O)c2nc(N3CCOCC3)cc(=O)n2c1 (stereo unspecified) (library stock concentration (final ~1000-fold dilution): 10 mM)
IRF Lucia reporter activity (RAW-Dual [1]; [4]): 1
IRF Lucia reporter activity (RAW-Dual [1]; agonist: LPS (TLR4) 0.1 ug/mL): 1.04

Cc1cc(C(C)Nc2ccccc2C(=O)O)c2nc(N3CCOCC3)cc(=O)n2c1 (stereo unspecified)
IRF Lucia reporter activity (RAW-Dual [2]; [5]): 0.843

COc1ccc2c(Oc3ccc(NC(=O)c4c(C)n(CC(C)(C)O)n(-c5ccccc5)c4=O)nc3)ccnc2c1
IRF Lucia reporter activity (RAW-Dual [2]; [5]): 0.588

COc1ccc2c(Oc3ccc(NC(=O)c4c(C)n(CC(C)(C)O)n(-c5ccccc5)c4=O)nc3)ccnc2c1 (library stock concentration (final ~1000-fold dilution): 10 mM)
IRF Lucia reporter activity (RAW-Dual [1]; [4]): 0.275
IRF Lucia reporter activity (RAW-Dual [1]; agonist: LPS (TLR4) 0.1 ug/mL): 0.462

COc1c(C)cnc(Cn2cnc3c(Cl)nc(N)nc32)c1C (library stock concentration (final ~1000-fold dilution): 10 mM)
IRF Lucia reporter activity (RAW-Dual [3]; [4]): 0.723
IRF Lucia reporter activity (RAW-Dual [3]; agonist: LPS (TLR4) 0.1 ug/mL): 1.29

COc1c(C)cnc(Cn2cnc3c(Cl)nc(N)nc32)c1C
IRF Lucia reporter activity (RAW-Dual [2]; [6]): 1.43

CC(=O)NC(Cc1ccc(O)cc1)C(=O)NC(CCCNC(=N)N)C(=O)NC(Cc1ccccc1)C(N)=O (stereo unspecified) (library stock concentration (final ~1000-fold dilution): 10 mM)
IRF Lucia reporter activity (RAW-Dual [1]; [4]): 0.931
IRF Lucia reporter activity (RAW-Dual [1]; agonist: LPS (TLR4) 0.1 ug/mL): 0.994

Cc1ccc(C2OC(CO)C(O)C(O)C2O)cc1Cc1ccc(-c2ccc(F)cc2)s1.Cc1ccc(C2OC(CO)C(O)C(O)C2O)cc1Cc1ccc(-c2ccc(F)cc2)s1.O (stereo unspecified) (library stock concentration (final ~1000-fold dilution): 10 mM)
IRF Lucia reporter activity (RAW-Dual [3]; [4]): 0.0212
IRF Lucia reporter activity (RAW-Dual [3]; agonist: LPS (TLR4) 0.1 ug/mL): 0.026

Cc1ccc(C2OC(CO)C(O)C(O)C2O)cc1Cc1ccc(-c2ccc(F)cc2)s1.Cc1ccc(C2OC(CO)C(O)C(O)C2O)cc1Cc1ccc(-c2ccc(F)cc2)s1.O (stereo unspecified)
IRF Lucia reporter activity (RAW-Dual [2]; [6]): 0.0328

COc1ccc(Cl)c(Nc2nc3ccccc3nc2NS(=O)(=O)c2cccc(NC(=O)C(C)(C)N)c2)c1 (library stock concentration (final ~1000-fold dilution): 10 mM)
IRF Lucia reporter activity (RAW-Dual [3]; [4]): 0.158
IRF Lucia reporter activity (RAW-Dual [3]; agonist: LPS (TLR4) 0.1 ug/mL): 0.791

O=C(Cc1ccccc1)Nc1nnc(CCSCCc2nnc(NC(=O)Cc3ccccc3)s2)s1 (library stock concentration (final ~1000-fold dilution): 10 mM)
IRF Lucia reporter activity (RAW-Dual [1]; [4]): 0.986
IRF Lucia reporter activity (RAW-Dual [1]; agonist: LPS (TLR4) 0.1 ug/mL): 1.4

COc1cc(-c2ncn(/C=C\C(=O)OC(C)C)n2)cc(C(F)(F)F)c1 (library stock concentration (final ~1000-fold dilution): 10 mM)
IRF Lucia reporter activity (RAW-Dual [3]; [4]): 0.0197
IRF Lucia reporter activity (RAW-Dual [3]; agonist: LPS (TLR4) 0.1 ug/mL): 0.121

COc1cc(-c2ncn(/C=C\C(=O)OC(C)C)n2)cc(C(F)(F)F)c1
IRF Lucia reporter activity (RAW-Dual [2]; [6]): 0.0902

COc1ccc(-c2nc(N3CCOCC3)c3sc(CN(C)c4ncc(C(=O)NO)cn4)cc3n2)cn1 (library stock concentration (final ~1000-fold dilution): 10 mM)
IRF Lucia reporter activity (RAW-Dual [3]; [4]): 0.0418
IRF Lucia reporter activity (RAW-Dual [3]; agonist: LPS (TLR4) 0.1 ug/mL): 0.611

COc1ccc(-c2nc(N3CCOCC3)c3sc(CN(C)c4ncc(C(=O)NO)cn4)cc3n2)cn1
IRF Lucia reporter activity (RAW-Dual [2]; [6]): 0.434

Cc1cnc(Nc2ccc(OCCN3CCCC3)cc2)nc1Nc1cccc(S(=O)(=O)NC(C)(C)C)c1 (library stock concentration (final ~1000-fold dilution): 10 mM)
IRF Lucia reporter activity (RAW-Dual [3]; [4]): 0.0581
IRF Lucia reporter activity (RAW-Dual [3]; agonist: LPS (TLR4) 0.1 ug/mL): 0.013

Cc1cnc(Nc2ccc(OCCN3CCCC3)cc2)nc1Nc1cccc(S(=O)(=O)NC(C)(C)C)c1
IRF Lucia reporter activity (RAW-Dual [2]; [6]): 0.0291

CC(CN1c2ccccc2Sc2ccccc21)N(C)C.Cl (stereo unspecified) (library stock concentration (final ~1000-fold dilution): 10 mM)
IRF Lucia reporter activity (RAW-Dual [1]; [4]): 0.442
IRF Lucia reporter activity (RAW-Dual [1]; agonist: LPS (TLR4) 0.1 ug/mL): 1.43

CC(CN1c2ccccc2Sc2ccccc21)N(C)C.Cl (stereo unspecified)
IRF Lucia reporter activity (RAW-Dual [2]; [5]): 1.23

CN(C)S(=O)(=O)c1ccc2c(c1)/C(=C/c1cc3c([nH]1)CCCC3)C(=O)N2 (library stock concentration (final ~1000-fold dilution): 10 mM)
IRF Lucia reporter activity (RAW-Dual [1]; [4]): 0.0973
IRF Lucia reporter activity (RAW-Dual [1]; agonist: LPS (TLR4) 0.1 ug/mL): 0.272
